# Source: PubChem BioAssay AID624417 (National Center for Advancing Translational Sciences (NCATS), 2012)
# Out of some 410,000 compounds screened, about 6,400 (1.6%) were called active. The shares of active, inactive and inconclusive entries below differ from those in the screen. Calls follow the shape of the dose curve; as a rule, active = well fitted inhibition curve with a large enough effect; inconclusive = small, poorly fitted or top-dose-only effect; inactive = no such curve, though single readings can be large or run the other way. Potencies of inconclusive entries are left out as doubtful fits.
# Target: Glucagon-like peptide 1 receptor (Homo sapiens) (UniProt P43220)
# Assay: qHTS of GLP-1 Receptor Inverse Agonists (Inhibition Mode); also: nearly all actives have a fitted effect of over 55% in size
# Details: HEK293 GLP-1R CRE-luciferase, luminescence, 24 h, GLP-1R form is constitutively active; activity change, negative = inhibition: at 38.3 µM (top of the series) unless noted
# In short: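 HEK293 cells stably co-expressing constitutively active GLP-1R and a cAMP-responsive luciferase reporter were seeded in DMEM with 10% Nu serum, given compounds after 12 h, and incubated 24 h at 37 deg C. Luminescence was then read.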
# % is scaled to controls: 0 for no effect and ±100 for the full control effect; potency is read from the fitted curve at half-maximal effect; tags tell the direction and shape of the fitted curve.
# Chain of UniProt P43220 (P43220 whole entry, looked up): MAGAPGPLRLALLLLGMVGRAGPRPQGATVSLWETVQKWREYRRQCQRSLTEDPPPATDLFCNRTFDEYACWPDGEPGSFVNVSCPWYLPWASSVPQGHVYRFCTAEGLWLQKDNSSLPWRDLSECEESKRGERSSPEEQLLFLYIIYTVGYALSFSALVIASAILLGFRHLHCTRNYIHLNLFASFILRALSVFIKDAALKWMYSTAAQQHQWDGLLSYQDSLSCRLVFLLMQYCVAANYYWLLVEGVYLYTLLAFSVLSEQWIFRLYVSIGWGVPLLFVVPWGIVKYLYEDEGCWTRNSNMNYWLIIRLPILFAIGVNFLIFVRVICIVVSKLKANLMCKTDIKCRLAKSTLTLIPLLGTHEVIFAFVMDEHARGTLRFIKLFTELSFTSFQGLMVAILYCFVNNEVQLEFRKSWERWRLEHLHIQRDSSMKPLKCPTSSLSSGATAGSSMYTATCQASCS
Structure (SMILES),Potency,"activity change, negative = inhibition"
CC1C(=O)N(Cc2cn(Cc3ccco3)nn2)CCS(=O)(=O)N1Cc1ccc(-c2ccc(Cl)c(Cl)c2)cc1 (stereo unspecified),"inconclusive [inhibitor, single point]",–
COc1ccc(C(CNC(=S)NCc2ccccc2)N2CCCC2)cc1 (stereo unspecified),"inconclusive [inhibitor, single point]",–
CC1CCCCN1C(=S)NC(=O)c1cccs1 (stereo unspecified),–,inactive: -28.8%
O=C(CSc1nccn1Cc1ccc(F)cc1)Nc1nc2ccccc2s1,"inconclusive [inhibitor, partial curve, poor fit]",–
CCN(CC)CCCNC(=O)CCn1nc(-c2ccc(Cl)cc2)ccc1=O,"inconclusive [inhibitor, single point]",–
COC(=O)C1=CN(c2ccc(F)cc2)C=C(C(=O)OC)C1c1cccc([N+](=O)[O-])c1,active: 5.62 µM,–
CCCCC(=O)NC(c1ccccc1OC)c1ccc2cccnc2c1O (stereo unspecified),"inconclusive [inhibitor, full curve, poor fit]",–
CC(C)(Cc1ccc(O)cc1)NC(=O)CC(=O)N/N=C/c1ccc([N+](=O)[O-])cc1,"inconclusive [inhibitor, partial curve, poor fit]",–
CC(=O)Nc1cccc(NC(=O)C2CCCN2C(=O)Nc2ccc(Cl)cc2)c1 (stereo unspecified),–,inactive: 9.14%
CCOC(=O)CN1C(=O)S/C(=C/c2ccc(O)c([N+](=O)[O-])c2)C1=O,–,inconclusive: -32.1% [inhibitor]
Cc1ccc(-n2ncc3c(Nc4cccc(Cl)c4)ncnc32)c(C)c1,"inconclusive [inhibitor, single point]",–
O=C(CC(CC(=O)c1ccccc1)C(=O)O)c1ccccc1,–,inactive: -1.73%
CCC(=O)OCOc1ccc(/C=C2/CCC(CN(C)C)C2=O)cc1 (stereo unspecified),"inconclusive [inhibitor, single point]",–
O=C(Cn1nnnc1-c1ccccc1F)Nc1ccc(OC(F)(F)F)cc1,–,inactive: -13.8%
Cc1ccc(C(=O)Nc2nc(-c3ccccn3)cs2)cc1S(=O)(=O)N1CCOCC1,"inconclusive [inhibitor, full curve, poor fit]",–
COc1cccc(-c2nn(-c3ccccc3)cc2C(=O)Nc2nccs2)c1,active: 7.08 µM,–
CC1(C(=O)NS(=O)(=O)c2cccc(F)c2)CCN1C(=O)C1(c2ccc(Cl)cc2)CCC1 (stereo unspecified),"inconclusive [inhibitor, partial curve, poor fit]",–
O=C(NC(=S)Nc1cccc2cc(O)ccc12)c1ccco1,"inconclusive [inhibitor, single point]",–
CCOC(=O)c1c(C)n(-c2ccc(OC)cc2)c2ccc(OC(=O)COc3ccccc3)cc12,–,inactive: -3.99%
COc1ccccc1-c1sc2ccccc2c1-c1ccc(C(C)=O)cc1,active: 10 µM,–
OC(CNc1nc(-c2cccnc2)nc2ccccc12)c1ccccc1 (stereo unspecified),"inconclusive [inhibitor, single point]",–

Structure (SMILES),Potency,"activity change, negative = inhibition"
O=C(Nc1ccccc1N1CCCCC1)C1CCN(C(=O)c2ccc(Cl)cc2)CC1,"inconclusive [inhibitor, partial curve, poor fit]",–
CC12CCC(=O)N1C(C(=O)Nc1cc(Cl)ccc1N1CCCC1)CS2 (stereo unspecified),"inconclusive [inhibitor, full curve]",–
O=C1C2C3C=CC(C3)C2C(=O)N1CCCCCCN1C(=O)C2C3C=CC(C3)C2C1=O (stereo unspecified),"inconclusive [inhibitor, full curve, poor fit]",–
CCCCNC(=S)N(C)/N=C/c1ccccc1F,"inconclusive [inhibitor, single point]",–
C=C(CN(C)C)C(=O)c1ccc(OC2OC(COC(C)=O)C(OC(C)=O)C(OC(C)=O)C2OC(C)=O)cc1 (stereo unspecified),"inconclusive [inhibitor, single point]",–
COCCCn1cnc2oc3nc4ccccc4nc3c2c1=O,"inconclusive [inhibitor, partial curve]",–
CCCCC[C@H]1CN(Cc2ccccc2)C(=O)[C@@H]1CC(=O)NCc1ccc(OC)cc1,"inconclusive [inhibitor, single point]",–
O=C(CSc1nccn1Cc1ccc(Cl)cc1)Nc1nc2ccccc2s1,"inconclusive [inhibitor, single point]",–
CC1CCC/C(=N\NC(=S)Nc2ccccc2)C1 (stereo unspecified),"inconclusive [inhibitor, single point]",–
CC(C)[C@@H](C(=O)NC1CCN(Cc2ccccc2)CC1)N1C(=O)N2CCc3c([nH]c4ccccc34)[C@@]2(C)C1=O,"inconclusive [inhibitor, partial curve, poor fit]",–
Cc1ccc(C(=O)NC(C)CCc2ccccc2)cc1[N+](=O)[O-] (stereo unspecified),"inconclusive [inhibitor, single point]",–
C/C(CC(=O)Nc1ccccc1-c1ccccc1)=N\NC(=O)COc1ccc(C)cc1Br,"inconclusive [inhibitor, partial curve, poor fit]",–
Cc1cccc(C(=O)NC(=S)NC(C)c2ccccc2)c1 (stereo unspecified),"inconclusive [inhibitor, full curve]",–
COc1cccc(C(=O)Nc2nc3ccccc3s2)c1,"inconclusive [inhibitor, single point]",–
CCCCc1ccc(NC(=O)C(C)CC)cc1 (stereo unspecified),"inconclusive [inhibitor, partial curve]",–
O=C(O)Cc1c(-c2ccccc2)c2cc(Cl)ccc2[nH]c1=O,"inconclusive [inhibitor, full curve, poor fit]",–
Oc1ccccc1-c1cc(-c2ccco2)[nH]n1,–,inactive: -18.2%
CCOc1ccc(C(=O)O/N=C(\N)c2ccccn2)cc1OCC,"inconclusive [inhibitor, single point]",–
COC(=O)C1=C(C)N(C(C)C)C(=O)C1(NC(=O)c1ccccc1OC)C(F)(F)F (stereo unspecified),–,inactive: 6.88%
Cc1oc(/C=N/NC(=O)CN(c2ccccc2Br)S(C)(=O)=O)cc1Br,"inconclusive [inhibitor, partial curve, poor fit]",–
